Lines with a small IC50 respond at low doses; where the fit passes the top or lowest dose, that dose stands as a limit. The AUC spans the tested range (256-fold, ending at the top dose) of the same fit: 1 means no effect, lower means more sensitive. An inferred top dose comes from the curve model; the source does not state it.

Compound in this assay: CC1=C(C(=O)Nc2cc3cn[nH]c3cc2F)C(c2ccc(C(F)(F)F)cc2)CC(=O)N1 [GSK429286A]
Kind of assay: Viability of human cancer cell lines after 72 h of drug (GDSC screen). As to conditions: top dose inferred. As to the method:
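Human cancer cell lines in 384-well plates, medium with 10% serum, drug for 72 h over a 256-fold dose range (nine 2-fold or five 4-fold steps up to the top dose). Adherent lines were fixed and stained with the nucleic acid dye Syto60, suspension lines read with resazurin; signal relative to control wells, capped at 0 and 100%. One two-parameter sigmoid per drug and line, fitted in a mixed model over all curves with the slope shared within a line.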
Consider “NB14 (neuroblastoma, adherent, top dose 20 µM)”, for which the AUC turned out to be 0.986 and the IC50 is above 20 µM.
For “NB17 (neuroblastoma, adherent, top dose 20 µM)” the same measures were 0.982 and above 20 µM.
For “NB69 (neuroblastoma, adherent, top dose 20 µM)”, in that order: 0.945 and above 20 µM.
Regarding “NB(TU)1-10 (neuroblastoma, adherent, top dose 20 µM)”, the AUC was 0.993 and the IC50 is above 20 µM.
As for “NB-4 (acute myeloid leukaemia, suspension, top dose 20 µM)”, the AUC was 0.942 and the IC50 is above 20 µM.
For “NCC021 (kidney, adherent, top dose 20 µM)”, in that order: 0.845 and 18.2 µM.
Turning to “NCI-H23 (lung adenocarcinoma, adherent, top dose 20 µM)”, the AUC stood at 0.854 and the half-maximal inhibitory concentration (IC50) stood at 15.4 µM.
For “NCI-H28 (mesothelioma, adherent, top dose 20 µM)”, in that order: 0.97 and above 20 µM.
With “NCI-H64 (small cell lung carcinoma, suspension, top dose 20 µM)”, the AUC was found to be 0.995 and the IC50 is above 20 µM.
Regarding “NCI-H69 (small cell lung carcinoma, suspension, top dose 20 µM)”, the AUC worked out at 0.961 and the IC50 is above 20 µM.
As for “NCI-H82 (small cell lung carcinoma, suspension, top dose 20 µM)”, the AUC is 0.927 and the IC50 was above 20 µM.
Take “NCI-H187 (small cell lung carcinoma, suspension, top dose 20 µM)”: the AUC came to 0.984 and the 50% inhibitory concentration (IC50) is above 20 µM.
For “NCI-H196 (small cell lung carcinoma, adherent, top dose 20 µM)” the same measures were 0.896 and above 20 µM.
With “NCI-H209 (small cell lung carcinoma, suspension, top dose 20 µM)”, the AUC is 0.933 and the concentration for half-maximal inhibition (IC50) is above 20 µM.
For the cell line “NCI-H211 (small cell lung carcinoma, adherent, top dose 20 µM)”, the AUC was found to be 0.95 and the concentration for half-maximal inhibition (IC50) is above 20 µM.
With “NCI-H226 (lung squamous cell carcinoma, adherent, top dose 20 µM)”, the AUC was 0.951 and the IC50 is above 20 µM.
For the cell line “NCI-H292 (lung adenocarcinoma, adherent, top dose 20 µM)”, the AUC turned out to be 0.96 and the IC50 was above 20 µM.
For “NCI-H322M (lung adenocarcinoma, suspension, top dose 20 µM)”, in that order: 0.986 and above 20 µM.
Turning to “NCI-H358 (lung adenocarcinoma, adherent, top dose 20 µM)”, the AUC was determined as 0.971 and the IC50 was above 20 µM.
For “NCI-H441 (lung adenocarcinoma, adherent, top dose 20 µM)” the same measures were 0.976 and above 20 µM.
“NCI-H446 (small cell lung carcinoma, semi-adherent, top dose 20 µM)”: the AUC was determined as 0.97 and the IC50 is above 20 µM.
With “NCI-H460 (large cell lung carcinoma, adherent, top dose 20 µM)”, the AUC stood at 0.99 and the 50% inhibitory concentration (IC50) was above 20 µM.
For “NCI-H510A (small cell lung carcinoma, semi-adherent, top dose 20 µM)”, in that order: 0.981 and above 20 µM.
Turning to “NCI-H520 (lung squamous cell carcinoma, adherent, top dose 20 µM)”, the AUC came to 0.969 and the IC50 was above 20 µM.
For “NCI-H522 (lung adenocarcinoma, adherent, top dose 20 µM)” the same measures were 0.947 and above 20 µM.
Consider “NCI-H524 (small cell lung carcinoma, suspension, top dose 20 µM)”, for which the AUC turned out to be 0.956 and the half-maximal inhibitory concentration (IC50) was above 20 µM.
With “NCI-H526 (small cell lung carcinoma, suspension, top dose 20 µM)”, the AUC was 0.979 and the concentration for half-maximal inhibition (IC50) is above 20 µM.
“NCI-H596 (lung adenocarcinoma, adherent, top dose 20 µM)”: the AUC turned out to be 0.961 and the IC50 is above 20 µM.
Regarding “NCI-H630 (large intestine, adherent, top dose 20 µM)”, the AUC amounted to 0.987 and the IC50 is above 20 µM.
Turning to “NCI-H647 (non-small cell lung carcinoma, adherent, top dose 20 µM)”, the AUC stood at 0.941 and the IC50 was above 20 µM.
“NCI-H650 (lung adenocarcinoma, adherent, top dose 20 µM)”: the AUC came out at 0.943 and the IC50 was above 20 µM.
For the cell line “NCI-H661 (large cell lung carcinoma, adherent, top dose 20 µM)”, the AUC came out at 0.955 and the half-maximal inhibitory concentration (IC50) was above 20 µM.
As for “NCI-H716 (large intestine, suspension, top dose 20 µM)”, the AUC came out at 0.927 and the IC50 is above 20 µM.
With “NCI-H720 (lung carcinoid, suspension, top dose 20 µM)”, the AUC came to 0.992 and the IC50 was above 20 µM.
For “NCI-H727 (lung carcinoid, adherent, top dose 20 µM)”, the AUC was determined as 0.962 and the concentration for half-maximal inhibition (IC50) was above 20 µM.
On to “NCI-H747 (large intestine, adherent, top dose 20 µM)”, for which the AUC turned out to be 0.955 and the IC50 is above 20 µM.
Turning to “NCI-H748 (small cell lung carcinoma, suspension, top dose 20 µM)”, the AUC turned out to be 0.978 and the IC50 is above 20 µM.
For “NCI-H810 (large cell lung carcinoma, adherent, top dose 20 µM)” the same measures were 0.955 and above 20 µM.
Turning to “NCI-H838 (lung adenocarcinoma, adherent, top dose 20 µM)”, the AUC turned out to be 0.986 and the half-maximal inhibitory concentration (IC50) is above 20 µM.
With “NCI-H841 (small cell lung carcinoma, adherent, top dose 20 µM)”, the AUC is 0.959 and the half-inhibitory concentration (IC50) is above 20 µM.
For “NCI-H847 (small cell lung carcinoma, adherent, top dose 20 µM)” the same measures were 0.817 and 8.57 µM.
For “NCI-H1048 (small cell lung carcinoma, adherent, top dose 20 µM)” the same measures were 0.989 and above 20 µM.
Turning to “NCI-H1092 (small cell lung carcinoma, suspension, top dose 20 µM)”, the AUC is 0.973 and the 50% inhibitory concentration (IC50) was above 20 µM.
For “NCI-H1155 (large cell lung carcinoma, suspension, top dose 20 µM)”, in that order: 0.987 and above 20 µM.
In the case of “NCI-H1299 (large cell lung carcinoma, adherent, top dose 20 µM)”, the AUC was 0.977 and the 50% inhibitory concentration (IC50) is above 20 µM.
As to “NCI-H1304 (small cell lung carcinoma, suspension, top dose 20 µM)”, the AUC is 0.946 and the IC50 is above 20 µM.
For “NCI-H1355 (lung adenocarcinoma, adherent, top dose 20 µM)”, in that order: 0.959 and above 20 µM.
On to “NCI-H1395 (lung adenocarcinoma, adherent, top dose 20 µM)”, for which the AUC was found to be 0.961 and the IC50 is above 20 µM.
Take “NCI-H1417 (small cell lung carcinoma, suspension, top dose 20 µM)”: the AUC was 0.83 and the IC50 came out at 16 µM.
Take “NCI-H1435 (lung adenocarcinoma, semi-adherent, top dose 20 µM)”: the AUC came to 0.988 and the 50% inhibitory concentration (IC50) is above 20 µM.
For “NCI-H1436 (small cell lung carcinoma, suspension, top dose 20 µM)”, in that order: 0.952 and above 20 µM.
For the cell line “NCI-H1437 (lung adenocarcinoma, adherent, top dose 20 µM)”, the AUC turned out to be 0.976 and the half-inhibitory concentration (IC50) is above 20 µM.
As for “NCI-H1563 (lung adenocarcinoma, adherent, top dose 20 µM)”, the AUC came to 0.971 and the concentration for half-maximal inhibition (IC50) was above 20 µM.
For the cell line “NCI-H1568 (lung adenocarcinoma, adherent, top dose 20 µM)”, the AUC stood at 0.967 and the half-inhibitory concentration (IC50) is above 20 µM.
In the case of “NCI-H1573 (lung adenocarcinoma, adherent, top dose 20 µM)”, the AUC worked out at 0.983 and the IC50 was above 20 µM.
With “NCI-H1581 (large cell lung carcinoma, semi-adherent, top dose 20 µM)”, the AUC worked out at 0.983 and the IC50 is above 20 µM.
Regarding “NCI-H1623 (lung adenocarcinoma, adherent, top dose 20 µM)”, the AUC was determined as 0.984 and the IC50 was above 20 µM.
With “NCI-H1648 (lung adenocarcinoma, adherent, top dose 20 µM)”, the AUC was determined as 0.985 and the half-inhibitory concentration (IC50) is above 20 µM.
As for “NCI-H1651 (lung adenocarcinoma, adherent, top dose 20 µM)”, the AUC was 0.987 and the half-maximal inhibitory concentration (IC50) was above 20 µM.
“NCI-H1666 (lung adenocarcinoma, semi-adherent, top dose 20 µM)”: the AUC was found to be 0.986 and the concentration for half-maximal inhibition (IC50) is above 20 µM.
